# Measurements taken from the supplement of paper PMC8291772.
# ± gives the standard error. The list shows a part of the results.
# Molecular target: terminal deoxynucleotidyl transferase (calf thymus) (UniProt P06526)
# Test: TdT poly-dT extension signal (Cy3 hybridisation fluorescence, uncapped minus capped) (fluorescence a.u.); higher = more efficient initiation of TdT extension
# Details: initiator chemistry: L-DNA (mirror-image), free 5'-OH (3'-tethered via HEG linker)
# Method: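 All mono- to pentamer D-DNA or L-DNA initiators were made by forward (3'->5') photolithographic in situ synthesis on glass on a hexaethylene glycol linker, leaving a free 5'-OH. Each was made in uncapped and DMTr-dT-capped versions, about 11 replicates each. Arrays were extended with calf thymus TdT (0.2 U/uL), 100 uM dTTP and 0.25 mM CoCl2 for 120 min at 37 C, hybridised with an rA18-Cy3 probe and scanned at 532 nm. The value is the mean uncapped minus the mean capped signal. IDs read 5'->3'. L-DNA is mirror-image; D-DNA 5'-OH initiators were below LOD (no extension).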
# Sequence of UniProt P06526 (P06526 whole entry): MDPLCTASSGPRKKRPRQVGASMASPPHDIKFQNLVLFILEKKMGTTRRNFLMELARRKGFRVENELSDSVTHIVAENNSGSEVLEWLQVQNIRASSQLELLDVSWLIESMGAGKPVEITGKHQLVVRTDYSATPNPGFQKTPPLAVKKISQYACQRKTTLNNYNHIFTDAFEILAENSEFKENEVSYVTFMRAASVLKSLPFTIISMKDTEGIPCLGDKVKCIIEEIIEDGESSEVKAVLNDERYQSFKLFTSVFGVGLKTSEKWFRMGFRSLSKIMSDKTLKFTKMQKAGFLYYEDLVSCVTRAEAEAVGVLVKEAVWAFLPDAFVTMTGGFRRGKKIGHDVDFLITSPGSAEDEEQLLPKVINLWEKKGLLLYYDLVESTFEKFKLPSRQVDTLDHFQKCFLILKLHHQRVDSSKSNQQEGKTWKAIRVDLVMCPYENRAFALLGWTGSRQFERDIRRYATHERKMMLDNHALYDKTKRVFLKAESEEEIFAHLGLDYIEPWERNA
row,Sequence,TdT poly-dT extension signal
1,GCCTA,97.9 ± 12
2,TGAAC,231 ± 21
3,GGCCA,65.2 ± 7
4,ATCGT,189 ± 13
5,AAAAA,106 ± 7.2
6,GAGA,78.4 ± 5.5
7,TGTGT,113 ± 11
8,AAGCT,40 ± 5.4
9,TAGA,139 ± 13
10,TCGAC,151 ± 11
11,GTCGA,176 ± 15
12,CACC,71.5 ± 8
13,GTTAT,155 ± 13
14,GGGT,55.9 ± 4.4
15,TAGC,107 ± 14
16,CCCGG,125 ± 7.8
17,ACTGC,48.4 ± 9.3
18,CTATG,161 ± 12
19,CTTTG,141 ± 13
20,TAAGA,161 ± 14
21,GGTAC,56.8 ± 7.3
22,CGAGT,47.4 ± 5.2
23,CTCGA,135 ± 12
24,TTTCG,286 ± 22
25,CCACG,100 ± 8.9

row,Sequence,TdT poly-dT extension signal
1,CGTC,54.8 ± 8.1
2,CATGG,80 ± 9.5
3,CCTTA,68 ± 5.6
4,TAAAC,191 ± 19
5,CTTAG,158 ± 16
6,GATAT,86.8 ± 8.1
7,CTGGG,141 ± 8.5
8,CAACT,73.7 ± 9.8
9,AATA,106 ± 9.7
10,AGATG,75.2 ± 5.8
11,ATTTT,136 ± 16
12,AGAGA,84.3 ± 4.5
13,ACTTA,47 ± 20
14,GTGTC,102 ± 8.5
15,AAGTG,51 ± 4.8
16,GCCCA,74.8 ± 7.6
17,GTTGA,173 ± 19
18,AACCC,74.5 ± 9.3
19,CGTGG,68 ± 6.6
20,TACG,149 ± 14
21,CGGAC,58.2 ± 6.5
22,ATATG,192 ± 15
23,TCCGT,193 ± 12
24,ACTAG,99.9 ± 7.2
25,TTACA,344 ± 20

row,Sequence,TdT poly-dT extension signal
1,GGCGG,71.8 ± 9.6
2,TTGT,258 ± 19
3,ACTG,58 ± 8
4,GTCC,98.5 ± 11
5,CACGT,52.8 ± 7.1
6,TGGTA,82.2 ± 5.3
7,CGAGC,65 ± 6.4
8,CGCAC,50.3 ± 7.4
9,GCGA,76.3 ± 7.8
10,CTGT,120 ± 13
11,CTTA,153 ± 11
12,AGAAT,81.9 ± 10
13,TTCAC,371 ± 39
14,TTAA,347 ± 25
15,ATCC,129 ± 9.2
16,GAGCG,76.8 ± 7.2
17,CTCA,135 ± 8.5
18,GCGTG,50 ± 7.3
19,GCTCG,83.1 ± 5.8
20,AAGCA,50.6 ± 7.2
21,CTCGG,158 ± 9.7
22,CATT,60.5 ± 7.3
23,CTCC,134 ± 18
24,AGTAA,42.8 ± 5.5
25,CGCGG,70.5 ± 7.6

row,Sequence,TdT poly-dT extension signal
1,GGTG,60.4 ± 7.2
2,AGGGC,58.6 ± 8.7
3,GGAGA,83.4 ± 8.9
4,GGCTC,52.7 ± 7.3
5,ACCTT,75.9 ± 4.1
6,ATAAT,246 ± 19
7,AAACG,71.4 ± 5.5
8,AAAGT,69.2 ± 6.7
9,TTGGG,335 ± 18
10,TTAGC,308 ± 15
11,TCAAA,212 ± 16
12,CATAA,110 ± 9.3
13,GCGAA,79.1 ± 7.7
14,TTCGA,367 ± 21
15,CTGGC,114 ± 5.9
16,GTTGT,139 ± 8.7
17,GATTG,84.5 ± 11
18,CACAC,88.4 ± 8.7
19,TCAGC,160 ± 12
20,GTCCC,118 ± 13
21,CCGCC,73.4 ± 5.9
22,TCAAT,174 ± 18
23,TAGAA,162 ± 14
24,ATCTA,186 ± 9.6
25,TGAAG,208 ± 9.1

row,Sequence,TdT poly-dT extension signal
1,TGGCC,121 ± 10
2,TTATT,381 ± 16
3,CATGC,78.3 ± 9.3
4,GCGGA,69.8 ± 7.4
5,ATTTC,138 ± 12
6,AGGGT,43.8 ± 4.7
7,TCGC,132 ± 10
8,AGGTC,26.2 ± 5.7
9,TTGGT,241 ± 22
10,GTGG,118 ± 9.7
11,ACAGA,85.7 ± 5.8
12,GAAT,79.3 ± 7.4
13,TATGT,149 ± 16
14,AGCG,48.1 ± 6.1
15,ATAGA,236 ± 15
16,GGGTC,60.9 ± 5.2
17,TATCT,149 ± 14
18,ATAGT,179 ± 18
19,CTAAA,224 ± 15
20,AAATG,85.4 ± 7
21,AAGAC,70.7 ± 5.5
22,TATAC,157 ± 14
23,CTACG,145 ± 12
24,GTAAT,179 ± 14
25,ATTAC,153 ± 15

row,Sequence,TdT poly-dT extension signal
1,ACGAG,68.5 ± 5.5
2,TTGTC,254 ± 14
3,GAAGC,75.7 ± 9.7
4,ATGAA,175 ± 12
5,TTCAG,356 ± 32
6,ACCGT,91.3 ± 5.6
7,TCCTC,186 ± 9
8,TATTG,135 ± 8.4
9,AGGCA,44.1 ± 5.8
10,CCTGT,78.6 ± 4.2
11,GCGAG,74.9 ± 6.4
12,GCCTG,90.6 ± 8.8
13,GACTG,85.6 ± 6.6
14,AAGGA,50.6 ± 5.9
15,GGTTA,50.7 ± 4.8
16,CCTCT,62.1 ± 6.5
17,CTTTC,96.7 ± 12
18,TACAT,177 ± 12
19,GTGGA,127 ± 8.5
20,CGTTG,53.7 ± 6.7
21,CGGT,33.6 ± 5.1
22,GTAGA,191 ± 19
23,CCCG,106 ± 13
24,AGTCC,32.2 ± 4.3
25,TGAT,135 ± 11

row,Sequence,TdT poly-dT extension signal
1,GGGGC,82.9 ± 13
2,TGGGC,111 ± 10
3,GGGAG,106 ± 19
4,TTATC,325 ± 29
5,TCAA,200 ± 13
6,CCCTA,91.3 ± 8
7,TGTG,123 ± 6.1
8,TCGAT,152 ± 12
9,TACCT,141 ± 10
10,CCTT,60.3 ± 10
11,ATAT,141 ± 13
12,TATAG,204 ± 9
13,TTGG,274 ± 21
14,TAATG,182 ± 15
15,CGAAA,92.7 ± 13
16,TGACC,179 ± 15
17,TTTAG,345 ± 24
18,CAGGT,44 ± 3.9
19,TACC,142 ± 18
20,AGATC,77 ± 6.2
21,GAACG,96.6 ± 7.8
22,GGAGC,79.7 ± 6.2
23,GTTGC,102 ± 8.8
24,AATAC,79 ± 9.3
25,ACCGA,89.5 ± 5.2

row,Sequence,TdT poly-dT extension signal
1,ATGTT,124 ± 10
2,CAACA,80.2 ± 9
3,TTGAG,317 ± 33
4,TACCC,155 ± 13
5,AGCAA,61.2 ± 5.3
6,GCAAA,115 ± 8.9
7,CGACA,68.1 ± 4.9
8,TTTCC,270 ± 21
9,AGAAA,82.7 ± 7.4
10,ACGGC,50 ± 6.3
11,AGTT,37.4 ± 4.8
12,GTTC,116 ± 8.2
13,CAACG,76.7 ± 5.5
14,TTTTA,302 ± 24
15,TGGCA,96.5 ± 7.1
16,ACACA,80.3 ± 8.1
17,TGTCA,114 ± 7.2
18,CTGCT,104 ± 12
19,AACTG,74.9 ± 5.8
20,AGTC,44.1 ± 8.7
21,GGCCC,67.7 ± 6.4
22,GGAG,72.5 ± 3.7
23,ATGT,106 ± 8.2
24,GGCG,75.4 ± 7.1
25,CAGGC,52 ± 4.7

row,Sequence,TdT poly-dT extension signal
1,AGGG,47.5 ± 6.5
2,GCGCC,64.7 ± 7.3
3,TTTC,280 ± 19
4,GTCCT,117 ± 9.6
5,CCAG,107 ± 9.7
6,CGAC,78.8 ± 9.6
7,CGGTG,43.7 ± 6.1
8,TCGGG,143 ± 7.4
9,CGGAT,48.4 ± 7
10,CATCT,69.7 ± 4.5
11,TGGA,107 ± 8.9
12,ACTAC,61.4 ± 8.8
13,GGACA,71.4 ± 6.9
14,GAACC,55.9 ± 8.8
15,TCGAG,160 ± 9.7
16,TAGCG,124 ± 12
17,CTACC,127 ± 19
18,AGGAA,57.1 ± 6.7
19,ACCCA,77.1 ± 11
20,GTATG,132 ± 13
21,CTGTG,139 ± 11
22,ACAGT,65.8 ± 8.1
23,GCTAT,89.5 ± 6.6
24,TGGAG,127 ± 6.7
25,TCCA,195 ± 15

row,Sequence,TdT poly-dT extension signal
1,GCTAC,79.9 ± 4.2
2,CGTTT,51.4 ± 5
3,TGTGA,140 ± 8.8
4,TATGA,201 ± 13
5,TGAGC,147 ± 8.6
6,GCGTA,50.5 ± 5.1
7,GGAC,66.7 ± 8.3
8,GCCGT,93.1 ± 5.6
9,ACAGG,74.5 ± 6.1
10,GCTAG,79.5 ± 7.8
11,ACGCG,70.6 ± 6.6
12,GACAC,91.9 ± 7
13,GGGCC,76.3 ± 9.2
14,GGACT,76.5 ± 5.1
15,GAAGG,96.8 ± 5.2
16,AATC,77.5 ± 9.8
17,TCTAA,217 ± 6.6
18,GGTA,56.5 ± 5.7
19,AATAG,95.8 ± 9.6
20,TATTT,156 ± 7.3
21,GCCC,78.7 ± 9.1
22,CAGC,63.5 ± 8.4
23,CGTAG,55.2 ± 7
24,CAGTT,36.5 ± 5
25,TTAAA,563 ± 39

row,Sequence,TdT poly-dT extension signal
1,GCTG,74.1 ± 4
2,TAGAT,129 ± 12
3,CCCCA,90.6 ± 9.5
4,CTCT,116 ± 10
5,GTGGT,108 ± 11
6,TCATG,177 ± 14
7,TTGA,270 ± 19
8,TTTTT,282 ± 18
9,GCGAC,77.7 ± 4.9
10,AGGAG,42.4 ± 5
11,TCGGA,148 ± 9.6
12,GTTCC,107 ± 11
13,GTTAA,194 ± 15
14,TTAAT,491 ± 32
15,AGAGT,54.1 ± 6.2
16,ACACT,72.1 ± 8.9
17,AAGGT,41.4 ± 5.3
18,TCAAG,211 ± 11
19,ACTC,56.8 ± 6.9
20,GCGGT,68.6 ± 7.9
21,ATGTC,127 ± 12
22,AAACT,84.4 ± 6.5
23,GCGGG,90.1 ± 8
24,ATTAT,152 ± 14
